# Assay results published in the RNAGym collection of RNA variant scans (doi:10.1093/nar/gkz1192).
# The source gives no read counts; variants with many changes may rest on few reads.
# B1: CPEB3 Ribozyme (parent)
# chain: UAACAGGGGGCCACAGCAGAAGCGUUCACGUCGCAGCCCCUGUCAGAUUCUGGUGAAUCUGCGAAUUCUGCUGUAUAUCUC
# Variants of: B1
# Test: self-cleavage, relative activity (ratio to wild type); higher = more cleavage; in vitro, sequencing
# How it was run: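 CPEB3 self-cleaving ribozyme mutant libraries were made by rounds of error-prone PCR, barcoded, and transcribed in vitro with T7 RNA polymerase for 5 hours at 37°C. Cleavage occurred during transcription and a 15 min DNase I step before EDTA stop. RNAs were reverse transcribed with template switching and Illumina-sequenced, with DNA sequencing mapping barcodes to variants. Relative activity is the variant's cleaved/total read fraction divided by wild type's (minimum 5 reads), averaged across three batches.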
row,Variant,self-cleavage
1,UUACAGGGGGCCUCAGCGAAAGCGUUCACGUCGCAGCCCCUGUCAGAUUCUGGUGAAUCUGCGAAUUCUGCUGUAUAUCUC [A2U A13U A18G G19A],0.08
2,UUACAGGGGGCCUCAGCUGAAGCGAUCACGUCGCAGCCCCUGUCAGAUUCUGGUGAAUCUGCGUAUUCAGCUCUAUAUCUC [A2U A13U A18U U25A A64U U69A G73C],0.15
3,UUACAGGGGGCCUCAGCAGAGGCGUUCACGUCGCAGCCCCUGUCAGAUUCUAGUGAUUCUGCGAAUUCUGCUGUAUAUCUC [A2U A13U A21G G52A A57U],0.41
4,UUACAGGGGGCCUCAGCAGAAGCGUUCACGUCGCAGCCCCUGUCAGAUUCUGGUGAAUCUGCGAAUUCUGCUCUAUAUCUC [A2U A13U G73C],1.24
5,UUACAGGGGGCCUCAGCAGAAGCGUACACGCCGCAGCGCCUGUCAGAUUCUGGUGAAUCUGCGAAGUCUGCUGUAUAUCCC [A2U A13U U26A U31C C38G U66G U80C],0.04
6,UUACAGGGGGCCACCGCAGAAGCGUUCACGUCGCAGCUCCUGUCAGAUUCUGGUGAACCUGCGGAUUCUGCUGUAAAUCUC [A2U A15C C38U U58C A64G U76A],0.03
7,UUACAGGGGGCCACCGCAGAAGCGAUCACGUCGCAGCCCCUGUCAGAUUCUGGUGAAUCUGCGAAUUCUGCUGUAUAUCUC [A2U A15C U25A],0.39
8,UUACAGGGGGCCACGGCAGAAGCGUUCCCGUCACAGCCCCUGUCAGAUUCUGGUUAAUCUGCGAAUUCUGCUGUAUAUCUC [A2U A15G A28C G33A G55U],0.23
9,UUACAGGGGGCCACGGCAGAAGCGUUCACGUCGCAGCCCCUGUCAGUUUCUGGUGAAUCUGCGAAUUCUGCUGUAUAUCUC [A2U A15G A47U],0.37
10,UUACAGGGGGCCACGACAGAAGCGUUCUCGUCGCAGCCCCUGUCAGAUUCUAGAGAAUCUGCGAAUUCUGCUGUAUAUCUC [A2U A15G G16A A28U G52A U54A],0.09
11,UUACAGGGGGCCACGGCAGAAGCGUUCACGUCCCGGCCCCUGUCCGAUUCUGGUGAAUCUGCGAAUUCUGCUGUAUAUCCC [A2U A15G G33C A35G A45C U80C],0.06
12,UUACAGGGGGCCACUGCAGUAGCGUUCACGUCGCAGCACCUGUCAGAUUCUGGCGAAUCUGCGUAUUCUGCAGUAUAUCUC [A2U A15U A20U C38A U54C A64U U72A],0.05
13,UUACAGGGGGCCACUGCAGAAGCGCUCACGUCGCAGCCCCUGUCAGAUACUGGUGAAUCUGCGGAUUCUGCAGUAUAUCUC [A2U A15U U25C U49A A64G U72A],0.06
14,UUACAGGGGGCCACUGCAGAAGCGUUCACGUCGCAGCCCCUGCCAGAUUCUGGUGAAUCUGCGAAUUCUGCUGUAUAUCCC [A2U A15U U43C U80C],0.23
15,UUACAGGGGGCCACAGCCGAAGCGUUCGCGUCGCAGCCCCUGUCAGAUCCUGGUGAAUCUGCGAAUGCUGCUGUAUAUCUC [A2U A18C A28G U49C U67G],0.04
16,UUACAGGGGGCCACAGCGGUAGCGUUCACGUCGCAGCCCCUGUCAGAUUCUGGUGAAUCUGCGAAUUCUGCAGUAUGUCUC [A2U A18G A20U U72A A77G],0.12
17,UUACAGGGGGCCACAGCGGAAGCGUCCGCGUCGCAGCCCCGGUCAGAUUCUGGUGAAUCUGCGAAUUCCGCUGUAUAUCUC [A2U A18G U26C A28G U41G U69C],0.07

row,Variant,self-cleavage
1,UUACAGGGGGCCACAGCGGAAGCGUCCACGUCGCAGCCCCUGUCGGAUUCUGGUGAAUCUGCGAAUUCCGCUGUAUAUCUC [A2U A18G U26C A45G U69C],0.13
2,UUACAGGGGGCCACAGCUGGAGCGUUCACGUCGCAGCCCCUGUCAGAUUAUGGUGAAUCUGCGAAUUCUUCUGUAUAUCUC [A2U A18U A20G C50A G70U],0.26
3,UUACAGGGGGCCACAGCUGAAGUGUUCACGUCGCAGCCCCUGUCUGAUUCUGGUGAAUCUGCGAAUUCUGCUGUAUAUCUC [A2U A18U C23U A45U],0.23
4,UUACAGGGGGCCACAGCUGAAGCGUUCACGCCGCAGCCCCUGUCAGAUUCUGGUGAAUCUGCGAAUUCUGCUGUAUAUCUC [A2U A18U U31C],0.39
5,UUACAGGGGGCCACAGCAGGAGCGUUCUCGCCACAGCCCCUGUCAGAUUCUGGUGAAUCUGCGAAUUCUGCUGCAUAUCUC [A2U A20G A28U U31C G33A U74C],0.23
6,UUACAGGGGGCCACAGCAGGAGCGUUCACAUCGCGGCCCCUGUCAGAUUCCGGUGUAUCUGCGAAUUCUGCUGUAUAUCUC [A2U A20G G30A A35G U51C A56U],0.17
7,UUACAGGGGGCCACAGCAGGAGCGCUCACGUCGCAGCCCCUGUCAGAUUCUGGUGAAUCUGCGAAUUCUACUGUAUAUCUC [A2U A20G U25C G70A],0.25
8,UUACAGGGGGCCACAGCAGGAGCGUUCACGUCGCAGCCCCCGACAGAUUCUGGUGAAUCUGCGAAUUCUGCUGUAUAUCUC [A2U A20G U41C U43A],0.66
9,UUACAGGGGGCCACAGCAGUAGCGUUCACGUCGCAGCCCCUGUCAGAUCCUGGUGAAUCUGCGAAUUCUGCGGUAUAUCUC [A2U A20U U49C U72G],0.26
10,UUACAGGGGGCCACAGCAGAGGCGUUCACGUCGCAGCCCCUGUCGGAUUCUGGUGAAUCUGCGAAUUCCGCUGUAUAUCUC [A2U A21G A45G U69C],0.09
11,UUACAGGGGGCCACAGCAGAGGCGUUCACGUCGCAGCCCCUGUCAGGUUCUGGUGAAUCUGCGAUUUCUGCUGUAUAUCUC [A2U A21G A47G A65U],0.14
12,UUACAGGGGGCCACAGCAGAAGCGUUCGCGUCGCAGCCGCUGUCAGAUUCUGGUGGAUCUGCGAAUUCUGCUGUAUACCUC [A2U A28G C39G A56G U78C],0.2
13,UUACAGGGGGCCACAGCAGAAGCGUUCGCGUCGCAGCCGCUGCCAGAUUCUGGUGGAUCUGCGAAUUCUGCUAUAUUUCUC [A2U A28G C39G U43C A56G G73A A77U],0.06
14,UUACAGGGGGCCACAGCAGAAGCGUUCGCGUCGCAGCCCCUGUCAGAUUCUGGCGAAUCUGCGUUUUCUGCUGUAUAUCUC [A2U A28G U54C A64U A65U],0.13
15,UUACAGGGGGCCACAGCAGAAGCGUUCGCGUCGCAGCCCCUGUCAGAUUCUGGUGAAUCCGCGAAUUCAGCUGUAUAUCUC [A2U A28G U60C U69A],0.13
16,UUACAGGGGGCCACAGCAGAAGCGUUCACGUCGCUGCCCCUGUCAGAUUCUGGUGAAUCUGCGAAUUCUGCAGUAUAUCUC [A2U A35U U72A],0.22
17,UUACAGGGGGCCACAGCAGAAGCGUUCACGUCGCAGCCCCUGUCGGAUUCCGGCGAAUCUGCGGAAUCUGCUGUAUAUCUC [A2U A45G U51C U54C A64G U66A],0.22
